# The list shows a part of the results.
# Assays:
# Assay in all cases: glycan array binding signal (z-score within array); higher = stronger binding
# Settings in all cases: glycan notation: IUPAC condensed, linker removed
# Fuc(a1-3)GlcNAc = biological target: Fuc(a1-3)GlcNAc
# Summary of the method: (§1)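 Glycan array data were curated from 3228 arrays in the Consortium for Functional Glycomics database and kept only where the protein sequence was available. Glycan names were converted to IUPAC-condensed notation, and columns mapping to the same glycan were averaged. The binding signal is a within-array Z-score, averaged across arrays of the same protein sequence at different concentrations or buffers and across linkers. Negative Z-scores can be read as non-binding.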
# [1] = biological target: Fuc(a1-3)[Gal(b1-4)]Glc6S
# Summary of the method: as §1
# [2] = biological target: Fuc(a1-3)[Gal(b1-4)]GlcNAc
# Summary of the method: as §1
# [3] = biological target: Fuc(a1-3)[Gal(b1-4)]GlcNAc(b1-2)Man
# Summary of the method: as §1
# [4] = biological target: Fuc(a1-3)[Gal(b1-4)]GlcNAc(b1-2)Man(a1-3)[Fuc(a1-3)[Gal(b1-4)]GlcNAc(b1-2)Man(a1-6)]Man(b1-4)GlcNAc(b1-4)GlcNAc
# Summary of the method: as §1
# [5] = biological target: Fuc(a1-3)[Gal(b1-4)]GlcNAc(b1-2)Man(a1-3)[Fuc(a1-3)[Gal(b1-4)]GlcNAc(b1-2)Man(a1-6)]Man(b1-4)GlcNAc(b1-4)[Fuc(a1-6)]GlcNAc
# Summary of the method: as §1
# [6] = biological target: Fuc(a1-3)[Gal(b1-4)]GlcNAc(b1-3)Gal(b1-3)[Fuc(a1-4)]GlcNAc
# Summary of the method: as §1
# [7] = biological target: Fuc(a1-3)[Gal(b1-4)]GlcNAc(b1-3)Gal(b1-4)[Fuc(a1-3)]GlcNAc
# Summary of the method: as §1
# [8] = biological target: Fuc(a1-3)[Gal(b1-4)]GlcNAc(b1-3)Gal(b1-4)[Fuc(a1-3)]GlcNAc(b1-3)Gal(b1-4)[Fuc(a1-3)]GlcNAc
# Summary of the method: as §1
# [9] = biological target: Fuc(a1-3)[Gal(b1-4)]GlcNAc(b1-3)GalNAc
# Summary of the method: as §1
# [10] = biological target: Fuc(a1-3)[Gal(b1-4)]GlcNAc(b1-6)GalNAc
# Summary of the method: as §1
# [11] = biological target: Fuc(a1-3)[Gal(b1-4)]GlcNAc(b1-6)[Gal(b1-3)GlcNAc(b1-3)]Gal(b1-4)Glc
# Summary of the method: as §1
# [12] = biological target: Fuc(a1-3)[Gal(b1-4)]GlcNAc6S
# Summary of the method: as §1
# [13] = biological target: Fuc(a1-3)[Gal3S(b1-4)]Glc
# Summary of the method: as §1
# [14] = biological target: Fuc(a1-3)[Gal3S(b1-4)]GlcNAc
# Summary of the method: as §1
# [15] = biological target: Fuc(a1-3)[Gal3S(b1-4)]GlcNAc6S
# Summary of the method: as §1
# [16] = biological target: Fuc(a1-3)[GalNAc(b1-4)]GlcNAc
# Summary of the method: as §1
# [17] = biological target: Fuc(a1-3)[GalNAc(b1-4)]GlcNAc6S
# Summary of the method: as §1
# Fuc(a1-4)GlcNAc = biological target: Fuc(a1-4)GlcNAc
# Summary of the method: as §1
# Fuc(b1-3)GlcNAc = biological target: Fuc(b1-3)GlcNAc
# Summary of the method: as §1
# Gal(a1-2)Gal = biological target: Gal(a1-2)Gal
# Summary of the method: as §1
# Gal(a1-3)Gal = biological target: Gal(a1-3)Gal
# Summary of the method: as §1
# Gal(a1-3)Gal(b1-3)GlcNAc = biological target: Gal(a1-3)Gal(b1-3)GlcNAc
# Summary of the method: as §1
# [18] = biological target: Gal(a1-3)Gal(b1-3)GlcNAc(b1-2)Man
# Summary of the method: as §1
# [19] = biological target: Gal(a1-3)Gal(b1-3)GlcNAc(b1-2)Man(a1-3)[Gal(a1-3)Gal(b1-3)GlcNAc(b1-2)Man(a1-6)]Man(b1-4)GlcNAc(b1-4)GlcNAc
# Summary of the method: as §1
# [20] = biological target: Gal(a1-3)Gal(b1-3)GlcNAc(b1-3)GalNAc
# Summary of the method: as §1
# [21] = biological target: Gal(a1-3)Gal(b1-3)GlcNAc(b1-6)GalNAc
# Summary of the method: as §1
# [22] = biological target: Gal(a1-3)Gal(b1-3)[Fuc(a1-4)]GlcNAc(b1-2)Man(a1-3)[Gal(a1-3)Gal(b1-3)[Fuc(a1-4)]GlcNAc(b1-2)Man(a1-6)]Man(b1-4)GlcNAc(b1-4)GlcNAc
# Summary of the method: as §1
# Gal(a1-3)Gal(b1-4)Glc = biological target: Gal(a1-3)Gal(b1-4)Glc
# Summary of the method: as §1
# Gal(a1-3)Gal(b1-4)GlcNAc = biological target: Gal(a1-3)Gal(b1-4)GlcNAc
# Summary of the method: as §1
# [23] = biological target: Gal(a1-3)Gal(b1-4)GlcNAc(b1-2)Man
# Summary of the method: as §1
# [24] = biological target: Gal(a1-3)Gal(b1-4)GlcNAc(b1-2)Man(a1-3)[Gal(a1-3)Gal(b1-4)GlcNAc(b1-2)Man(a1-6)]Man(b1-4)GlcNAc(b1-4)GlcNAc
# Summary of the method: as §1
# [25] = biological target: Gal(a1-3)Gal(b1-4)GlcNAc(b1-3)GalNAc
# Summary of the method: as §1
# [26] = biological target: Gal(a1-3)Gal(b1-4)GlcNAc(b1-6)GalNAc
# Summary of the method: as §1
# [27] = biological target: Gal(a1-3)Gal(b1-4)[Fuc(a1-3)]GlcNAc
# Summary of the method: as §1
# [28] = biological target: Gal(a1-3)Gal(b1-4)[Fuc(a1-3)]GlcNAc(b1-2)Man(a1-3)[Gal(a1-3)Gal(b1-4)[Fuc(a1-3)]GlcNAc(b1-2)Man(a1-6)]Man(b1-4)GlcNAc(b1-4)GlcNAc
# Summary of the method: as §1
# Gal(a1-3)GalNAc = biological target: Gal(a1-3)GalNAc
# Summary of the method: as §1
binder,measurement,setting,value
PX14343B-bfa-546-20-546 (Bacteroides fragilis) (protein) CDLERYPLTDLSEETFWNSESNAELALTSLYRGSLTDGVEYNPSDWWSYHGMIMMEHLSDNAFDRRGENNPFFKISSGNLTADNAFIKRYWETSYKRIGYCNRFLVGIQNSSESEKKTRMIAEARFLRATQYFYLASYFKNVPLVENVLTGEEANNVTKTSQADILKWCVTEFTAAAADLPRFSAIPAGEAGRACKQAALAFLGRTCMLQKDWKSGAKAFHDIMELGDNAINANYQELFYPSTGTSNKENIFYIQYLENYLGTGLPQHALSAKDGGWSLVNPAADLYESYEFKDGTPFSYDDPRYDPSNLGKDRDPRLDYTIYYNGAIFMGTEYKMSPDYSAAKKEKLDYTSEASRTGFMMRKYFEESTPINDVQSANGLTPVIRYAEVLLGYLECLVEDNQTITQGILDETINAVRGRASVNMPPVTEVTPAKLREIVRHERRIELAMEGIRYWDIMRWGIAHEVLSQKIWGAPYPGSTQYATTTKEVDPTGNYRWYVGKRAFRNPTDYTWPIPQSEQNINPNLRD,glycan array binding signal (z-score),Fuc(a1-3)GlcNAc,-0.113
same,glycan array binding signal (z-score),[1],-0.118
same,glycan array binding signal (z-score),[2],-0.127
same,glycan array binding signal (z-score),[3],-0.113
same,glycan array binding signal (z-score),[4],-0.132
same,glycan array binding signal (z-score),[5],-0.11
same,glycan array binding signal (z-score),[6],-0.12
same,glycan array binding signal (z-score),[7],-0.111
same,glycan array binding signal (z-score),[8],-0.118
same,glycan array binding signal (z-score),[9],-0.114
same,glycan array binding signal (z-score),[10],-0.12
same,glycan array binding signal (z-score),[11],-0.112
same,glycan array binding signal (z-score),[12],-0.129
same,glycan array binding signal (z-score),[13],-0.133
same,glycan array binding signal (z-score),[14],-0.129
same,glycan array binding signal (z-score),[15],-0.111
same,glycan array binding signal (z-score),[16],-0.113
same,glycan array binding signal (z-score),[17],-0.123
same,glycan array binding signal (z-score),Fuc(a1-4)GlcNAc,-0.133
same,glycan array binding signal (z-score),Fuc(b1-3)GlcNAc,-0.115
same,glycan array binding signal (z-score),Gal(a1-2)Gal,-0.116
same,glycan array binding signal (z-score),Gal(a1-3)Gal,-0.125
same,glycan array binding signal (z-score),Gal(a1-3)Gal(b1-3)GlcNAc,-0.104
same,glycan array binding signal (z-score),[18],-0.129
same,glycan array binding signal (z-score),[19],-0.124
same,glycan array binding signal (z-score),[20],-0.134
same,glycan array binding signal (z-score),[21],-0.11
same,glycan array binding signal (z-score),[22],-0.096
same,glycan array binding signal (z-score),Gal(a1-3)Gal(b1-4)Glc,-0.115
same,glycan array binding signal (z-score),Gal(a1-3)Gal(b1-4)GlcNAc,-0.122
same,glycan array binding signal (z-score),[23],-0.086
same,glycan array binding signal (z-score),[24],-0.105
same,glycan array binding signal (z-score),[25],-0.122
same,glycan array binding signal (z-score),[26],-0.107
same,glycan array binding signal (z-score),[27],-0.129
same,glycan array binding signal (z-score),[28],-0.101
same,glycan array binding signal (z-score),Gal(a1-3)GalNAc,-0.118
